Screen size: about 360,000 compounds; about 520 (0.14%) were called active. Inconclusive results, whose numbers are uncertain, are shown with a selection of clear calls. The call rests on the fitted dose curve; in most records, active means well fitted inhibition curve with a large enough effect; inconclusive means small, poorly fitted or top-dose-only effect; inactive means no such curve, though single readings can be large or run the other way. Potencies of inconclusive entries are left out as doubtful fits.
What follows are molecules tested against Rap guanine nucleotide exchange factor 3 (Homo sapiens) (UniProt O95398) (assay: qHTS for Antagonist of cAMP-regulated guanine nucleotide exchange factor 3 (EPAC1): primary screen). Settings: EPAC1 GEF assay, Rap1b-BODIPY-GDP exchange fluorescence; activity change, negative = inhibition: at 115 µM (top of the series).
Further: nearly all actives have a fitted effect of over 50% in size.
Potency means the concentration at half of the fitted maximal effect; tags describe the fitted curve by direction and shape.
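Wherever activity change, negative = inhibition is given: plate controls were vehicle for no effect and positive control for full effect.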

Sequence of UniProt O95398 (O95398 whole entry, looked up): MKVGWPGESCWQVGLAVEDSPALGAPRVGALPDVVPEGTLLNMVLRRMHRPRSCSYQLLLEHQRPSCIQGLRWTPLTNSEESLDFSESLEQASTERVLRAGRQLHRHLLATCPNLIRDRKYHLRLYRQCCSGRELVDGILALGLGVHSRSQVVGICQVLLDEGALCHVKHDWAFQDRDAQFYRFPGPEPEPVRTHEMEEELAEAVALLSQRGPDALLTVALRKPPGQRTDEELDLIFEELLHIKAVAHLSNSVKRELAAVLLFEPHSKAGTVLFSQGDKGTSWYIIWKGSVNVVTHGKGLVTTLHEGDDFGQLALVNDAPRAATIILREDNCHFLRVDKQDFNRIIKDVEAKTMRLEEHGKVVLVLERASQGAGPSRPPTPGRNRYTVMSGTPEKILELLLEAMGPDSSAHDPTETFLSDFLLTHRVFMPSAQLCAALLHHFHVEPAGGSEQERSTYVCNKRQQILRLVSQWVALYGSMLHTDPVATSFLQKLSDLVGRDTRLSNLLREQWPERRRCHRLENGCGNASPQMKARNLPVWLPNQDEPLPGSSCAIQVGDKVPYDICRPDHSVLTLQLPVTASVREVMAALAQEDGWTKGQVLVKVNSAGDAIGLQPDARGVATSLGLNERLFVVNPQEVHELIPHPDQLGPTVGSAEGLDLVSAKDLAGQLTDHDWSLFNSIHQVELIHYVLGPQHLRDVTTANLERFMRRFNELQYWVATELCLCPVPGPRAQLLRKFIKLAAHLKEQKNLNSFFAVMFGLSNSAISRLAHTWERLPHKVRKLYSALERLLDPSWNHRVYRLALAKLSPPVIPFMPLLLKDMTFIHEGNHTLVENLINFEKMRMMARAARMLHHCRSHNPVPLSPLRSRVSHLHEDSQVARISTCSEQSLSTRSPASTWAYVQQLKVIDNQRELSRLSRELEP

Compound	Potency	activity change, negative = inhibition
Cc1cc(SCc2cc(=O)[nH]c3ccccc23)nc2ccccc12	inconclusive [inhibitor, single point]	–
Cc1cccc(N=C2NC(=O)c3cc([N+](=O)[O-])ccc32)c1	inconclusive [inhibitor, single point]	–
Cc1ccc(Cc2c(-c3ccccc3)nc3ccc(Br)cn23)cc1	–	inactive: -8.23%
CCN(CC)c1ccc(C=O)c(OC)c1	inconclusive [inhibitor, single point]	–
Cc1cc(N/N=C/c2ccccc2)nc(N2CCOCC2)n1	inconclusive [inhibitor, partial curve, poor fit]	–
O=C(NC1CCCCC1)C(c1cc2ccccc2o1)n1c(=O)c(-c2ccco2)nc2ccccc21 (stereo not drawn)	inconclusive [inhibitor, partial curve]	–
CC(=O)c1ccc(NC(=O)CSc2nnc(-c3ccco3)c(-c3ccco3)n2)cc1	active: 50.1 µM	–
N/C(=N\C(=S)Nc1ccccc1)c1ccccc1	–	inactive: -6.53%
COc1cc(OC)cc(C(=O)N[C@H](C(=O)OCC(=O)Nc2cccc(F)c2)C(C)C)c1	inconclusive [inhibitor, partial curve]	–
CCOC(=O)C1(CCOc2ccccc2)CCN(Cc2cnc(C)[nH]2)CC1	inconclusive [inhibitor, full curve, poor fit]	–
O=C(Nc1nc(-c2ccccc2)cs1)c1ccc(N2CCOCC2)c([N+](=O)[O-])c1	–	inactive: 14.8%
Cc1cc(C)n(-c2nc(SCCN3CCOCC3)c3c4c(sc3n2)CCCC4)n1	inconclusive [inhibitor, single point]	–
Nc1nc2nc(-c3ccccc3)cc(C(F)(F)F)c2s1	inconclusive [inhibitor, partial curve]	–
CN(c1ccc(OCC(=O)OCC(=O)Nc2ccc(F)cc2)cc1)S(=O)(=O)c1ccc(Cl)cc1	inconclusive [inhibitor, single point]	–
COc1ccc(CCN(C)CC(O)COc2c(C)ccc(C)c2C)cc1OC (stereo not drawn)	–	inactive: 5.39%
N#C/C(=C/c1ccc(N2CCCCCC2)o1)c1cccc(F)c1	–	inactive: -2.28%
O=C(O)c1ccc(NS(=O)(=O)c2ccc3c(c2)C2C=CCC2C(c2ccccc2F)N3)cc1 (stereo not drawn)	inconclusive [inhibitor, full curve]	–
NC(=O)c1c(NC(=O)CN2CCN(S(=O)(=O)c3ccccc3)CC2)sc2c1CCC2	inconclusive [inhibitor, partial curve, poor fit]	–
Cc1c(Br)c(=O)oc2c(Br)c(O)c(O)cc12	inconclusive [inhibitor, full curve]	–
COc1ccc(Cl)cc1Nc1ncnc2sc(C)c(S(=O)(=O)N3CCC(C)CC3)c12	inconclusive [inhibitor, full curve, poor fit]	–
CCC(c1nnnn1-c1ccc2c(c1)OCCO2)N1CCN(c2ccc(F)cc2)CC1 (stereo not drawn)	inconclusive [inhibitor, single point]	–
Cc1cc(C(=O)CSc2nnc(-c3ccccc3)n2-c2ccccc2)c(C)n1-c1ncn[nH]1	inconclusive [inhibitor, partial curve, poor fit]	–

Compound	Potency	activity change, negative = inhibition
CC(C)=CCCC(C)c1cc(C(=O)NCCc2ccc(O)cc2)c(N)s1 (stereo not drawn)	–	inactive: -5.01%
O=C(CCC(=O)N(CC(=O)NC1CCCCC1)c1ccc(F)cc1)Nc1ccccn1	inconclusive [inhibitor, full curve, poor fit]	–
O=C(NCCN1CCOCC1)c1ccc2c(c1)N(Cc1cccc(F)c1)C(=O)c1ccccc1S2	–	inactive: -2.71%
Cc1cc(C)n(-c2nc(NCC3CCCO3)c3c4c(sc3n2)COC(C)(C)C4)n1 (stereo not drawn)	–	inactive: -0.162%
Cc1ccc([N+](=O)[O-])cc1N(CC(=O)Nc1ccc(S(=O)(=O)Nc2cccc(C(F)(F)F)c2)cc1)S(C)(=O)=O	inconclusive [inhibitor, full curve, poor fit]	–
CCCCNC(=O)C1(C)CCN1C(=O)c1cc(-c2cccs2)oc1C (stereo not drawn)	–	inactive: -2.66%
CCOC(=O)N1CCN(C(=O)CSc2nc(CC)nc3c2c(=O)n(C)c(=O)n3C)CC1	–	inactive: 9.26%
Cn1c(=O)c(C#N)c(-c2ccc(F)cc2)c2cc(C(=O)c3cc(Cl)cc(Cl)c3O)cnc21	inconclusive [inhibitor, single point]	–
CN1CCCC(OC(=O)c2cccc(S(=O)(=O)N3CCCCCC3)c2)C1 (stereo not drawn)	inconclusive [inhibitor, single point]	–
O=C(Oc1c(Cl)cc(Cl)c2cccnc12)c1cccs1	–	inactive: 1.86%
CCCc1nc(NCc2ccccn2)c2nnn(Cc3ccccc3F)c2n1	inconclusive [inhibitor, partial curve, poor fit]	–
Cc1nc(N2CCN(c3ccccn3)CC2)c2c(C)c(C(=O)N3CCN(c4ccccc4F)CC3)sc2n1	inconclusive [inhibitor, single point]	–
CC(=O)c1ccc(OC(=O)CCc2nc3ccccc3s2)cc1	–	inactive: 6.05%
COc1ccc(S(=O)(=O)N(C)C)cc1NC(=O)CSc1ncccn1	inconclusive [inhibitor, single point]	–
CC(OC(=O)c1ncc(Cl)c(Cl)c1Cl)C(=O)NC1CCCCC1C (stereo not drawn)	–	inactive: -1.1%
Oc1cc2c(cc1O)C1c3ccc(O)c(O)c3OCC1(O)C2 (stereo not drawn)	inconclusive [inhibitor, partial curve]	–
COc1ccccc1Oc1nc(C)c(C(C)=O)cc1C#N	inconclusive [inhibitor, single point]	–
Cc1cc(O)c(C(C)C)cc1NC(=O)Nc1cccc2ccccc12	inconclusive [inhibitor, full curve, poor fit]	–
COc1cc(/C=C2/C(=N)N3C(SC)=NSC3=NC2=O)ccc1OC(=O)c1ccco1	–	inactive: -27.7%
CCC(NC(=O)c1cc(COc2cc(C)c(Cl)c(C)c2)on1)c1ccncc1 (stereo not drawn)	inconclusive [inhibitor, partial curve]	–
Cc1c(C(C)(C)O)[nH]c2ccc(C(F)(F)F)cc12	inconclusive [inhibitor, single point]	–
